Measured values as given in paper PMC4336329 (PLoS ONE, 2015).
Screen size: about 310,000 compounds; about 2,200 (0.71%) showed an effect of 50% or more. The effect is printed as a negative number. The list shows a part of the results.

Target: human ether-à-go-go-related gene (hERG) potassium channel (human, UniProt Q12809)
Assay: primary screen, population patch clamp on CHO cells stably expressing hERG

Chain of human ether-à-go-go-related gene (hERG) potassium channel (Q12809 whole entry, looked up): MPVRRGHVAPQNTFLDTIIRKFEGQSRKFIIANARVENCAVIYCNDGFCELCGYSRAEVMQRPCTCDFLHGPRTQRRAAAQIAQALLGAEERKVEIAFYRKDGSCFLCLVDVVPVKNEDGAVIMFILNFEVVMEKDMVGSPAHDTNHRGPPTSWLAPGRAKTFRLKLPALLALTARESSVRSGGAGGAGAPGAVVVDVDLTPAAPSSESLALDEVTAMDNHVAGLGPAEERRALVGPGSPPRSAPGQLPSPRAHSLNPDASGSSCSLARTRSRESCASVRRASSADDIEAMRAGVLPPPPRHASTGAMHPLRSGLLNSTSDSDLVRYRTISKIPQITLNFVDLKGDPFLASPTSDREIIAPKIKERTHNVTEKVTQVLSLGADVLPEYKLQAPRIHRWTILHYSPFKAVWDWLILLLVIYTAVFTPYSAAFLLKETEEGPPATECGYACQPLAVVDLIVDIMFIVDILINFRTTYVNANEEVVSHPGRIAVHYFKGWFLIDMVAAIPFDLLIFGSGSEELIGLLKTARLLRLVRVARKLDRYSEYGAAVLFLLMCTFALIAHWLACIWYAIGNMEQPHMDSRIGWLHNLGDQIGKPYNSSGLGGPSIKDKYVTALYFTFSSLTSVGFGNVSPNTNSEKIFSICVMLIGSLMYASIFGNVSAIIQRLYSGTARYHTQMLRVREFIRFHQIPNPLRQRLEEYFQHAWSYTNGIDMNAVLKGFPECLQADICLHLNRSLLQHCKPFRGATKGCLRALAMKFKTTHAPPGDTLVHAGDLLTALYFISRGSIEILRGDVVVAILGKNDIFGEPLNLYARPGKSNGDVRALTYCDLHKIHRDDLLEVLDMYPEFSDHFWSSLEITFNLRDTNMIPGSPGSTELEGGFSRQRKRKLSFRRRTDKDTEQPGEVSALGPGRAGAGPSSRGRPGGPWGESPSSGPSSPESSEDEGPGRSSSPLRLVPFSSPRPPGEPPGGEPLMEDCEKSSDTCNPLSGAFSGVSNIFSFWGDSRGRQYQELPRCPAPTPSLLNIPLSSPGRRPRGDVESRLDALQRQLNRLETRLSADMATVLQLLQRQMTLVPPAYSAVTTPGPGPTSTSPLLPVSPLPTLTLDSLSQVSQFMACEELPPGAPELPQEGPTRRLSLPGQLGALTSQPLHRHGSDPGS

Row | SMILES | hERG current change (%, negative = inhibition) at 1uM [%]
1 | O=C(NC(=S)Nc1cc(S(=O)(=O)N2CCOCC2)ccc1N1CCOCC1)C1CCCC1 | 5.31
2 | COc1ccccc1/C=C1\CCCC2=C1Nc1nnnn1C2c1ccccc1OC (stereo not shown) | 15.5
3 | CN1CCC(OC(=O)c2ccco2)CC1.Cl | 6.33
4 | CC[C@H](C)[C@H](NC(N)=O)C(=O)OCC(=O)NCc1ccc(Cl)cc1 | 2.64
5 | CSc1cc(/C=N/O)c(SC)s1 | -4.46
6 | CC(C)=CCN1CCN(Cc2cnc(C)s2)CC1CCO (stereo not shown) | 11.4
7 | CCN(CC(=O)Nc1ccc(NC(C)=O)cc1)C(=O)CC1OC(=O)c2ccccc21 (stereo not shown) | 10.2
8 | CCNC(=O)COc1cc(C)c(Cl)c(C)c1 | 7.02
9 | Cc1ccc(C(=O)NCCNC(=O)COc2ccccc2Cl)cn1 | 8.7
10 | COc1ccc(-n2c(SCC#N)nc3c(sc(=S)n3-c3ccccc3)c2=O)c(OC)c1 | 16.8
11 | N/C(=N\N=C\c1ccco1)SC1CC(=O)N(c2ccc(C(=O)O)cc2)C1=O (stereo not shown) | 18.4
12 | O=C(c1ccccc1)c1ccc2nc(N3CCN(C(=O)c4ccco4)CC3)c3nncn3c2c1 | 0.565
13 | COc1cccc(CNC(=O)C(CC(C)C)NC(=O)c2ccccc2C)c1 (stereo not shown) | 21.7
14 | O=C1C2C3C=CC(CNS(=O)(=O)c4ccccc4)(O3)C2C(=O)N1c1ccc(Cl)cc1 (stereo not shown) | -21.3
15 | Cc1ccc(C(=O)Nn2c(N)c(S(=O)(=O)c3ccc(C)cc3)c3nc4ccccc4nc32)cc1 | -1.95
16 | CC(=O)Nc1ccc(SCCC2CCCCN2C)cc1 (stereo not shown) | 11.7
17 | CC(=O)N/N=C\c1ccccc1OC/C=C/c1ccccc1 | 17.4
18 | COc1ccc(CNC(=O)c2cc3c(s2)CS(=O)C3)cc1 (stereo not shown) | 14.7
19 | CCOC(=O)c1cc(NC(=O)c2ccccc2)c(=O)oc1-c1ccccc1 | 3.12
20 | COc1ccc([C@H]2CC(=O)C=C(c3ccc(SC)cc3)C2)cc1 | 13.6
21 | Cc1ccc(SCC(=O)Nc2ncc(C)s2)cc1 | 6.5
22 | O=C(Oc1cccnc1)c1cc(S(=O)(=O)N2CCCCC2)ccc1Cl | 13.2

Row | SMILES | hERG current change (%, negative = inhibition) at 1uM [%]
23 | Cc1cc2c(cc1C)NC1=C(N2)OC(c2cccc(O)c2)C1=O (stereo not shown) | 5.62
24 | CCN(c1ccccc1)S(=O)(=O)c1cc(NC(=O)COC(=O)C2CC2)ccc1Cl | 8.17
25 | CC(C)(CSc1ncccn1)NS(=O)(=O)c1ccccc1 | 12.9
26 | Nc1c2c(nc3ccccc13)N(C1CCCCC1)CC2 | -16.7
27 | O=c1oc2ccccc2cc1-c1csc(Nc2nc3c(F)cccc3s2)n1 | 0.573
28 | COc1ccc(C(C)=O)cc1COC(=O)c1ccc2ccccc2n1 | 5.79
29 | N#Cc1cccc(-n2nnnc2-c2ccccn2)c1 | 9.31
30 | Cc1ccc(/C=C/C(=O)NCC2COc3ccccc3O2)o1 (stereo not shown) | -4.46
31 | O=C(NCC1CCCO1)c1ccccc1-c1nc(-c2ccccc2)no1 (stereo not shown) | -9.39
32 | Cc1cccc(/C(N)=N/OC(=O)C23CC4CC(CC(C4)C2)C3)c1 | -3.34
33 | COC(=O)C1=C(CS(=O)(=O)c2ccccc2)NC(=O)NC1c1ccccc1 (stereo not shown) | 11.4
34 | COP(=O)(OC)C(NC(=O)/C=C/c1ccccc1)C(Cl)(Cl)Cl (stereo not shown) | 12.4
35 | CC[C@@H](C)C(NC(=O)OC(C)(C)C)c1cn([C@@H](Cc2cc3ccccc3[nH]2)C(=O)N2CCN(C(=O)OC(C)(C)C)CC2)nn1 (stereo partly shown) | 6.71
36 | COc1cc(/C=C/C(=O)N2CCCC2)cc(OC)c1OC | -2
37 | CCOc1ccc(S(=O)(=O)Nc2cccc(C(=O)N3CC(C)OC(C)C3)c2)cc1 (stereo not shown) | 15.1
38 | Cc1cccc2c1N(CCOc1ccc(C(C)(C)C)cc1)C(=O)C2=O | -3.99
39 | CCOc1ccc(CNC(=S)N/N=C\c2ccc([N+](=O)[O-])cc2)cc1 | 7.59
40 | O=C(CSc1nc(=O)n(CCN2CCOCC2)c2c1CCC2)Nc1ccc(OC(F)(F)F)cc1 | -40.2
41 | COc1ccc(C2c3[nH]c4ccccc4c3CCN2CCCn2cccn2)c(C)c1C (stereo not shown) | 5.59
42 | O=C(c1ccc(Cn2cc(Cl)cn2)cc1)N1CCN(c2ccccc2)CC1 | -11.4
43 | O=C(CNC(=O)c1ccccc1)NCc1nc2ccccc2[nH]1 | 13
44 | Cc1c(C(=O)N2CCCCC2)c(S(=O)(=O)Nc2cccc(Br)c2)c(C)n1C | -2.16

Row | SMILES | hERG current change (%, negative = inhibition) at 1uM [%]
45 | Cc1cccc(N2CCN(S(=O)(=O)c3ccc4c(c3)OCCO4)CC2)c1C | -3.64
46 | CCOC(=O)c1sc(NC(=O)c2cccc(S(=O)(=O)N3CCN(C)CC3)c2)cc1C | -0.248
47 | CCOC(=O)c1c(C)n(CC(O)CN(C)C)c2cc(Br)c(OC)cc12.Cl (stereo not shown) | -9.5
48 | COc1ccc2oc3cc(C)[n+]([O-])c(-c4ccc(Cl)cc4)c3c2c1 | -0.0212
49 | COc1ccc(CNc2oc(COc3ccccc3Cl)nc2C#N)cc1 | 4.22
50 | CC1CN(C(=O)C(C)OC(=O)c2ccc3ncsc3c2)CC(C)O1 (stereo not shown) | 17.9
51 | CC1CN(CCn2cnc3c(N)ncnc32)CC(C)O1 (stereo not shown) | 11.3
52 | CCOc1cc(/C=C2\NC(=S)N(c3c(C)n(C)n(-c4ccccc4)c3=O)C2=O)ccc1O | -1.6
53 | O=C(Nc1cccnc1)c1cc(F)c(F)cc1Cl | 6.27
54 | CCOc1cc(CNCCCN2CCOCC2)cc(Br)c1OCC(=O)Nc1cccc(C(F)(F)F)c1.Cl | -18.8
55 | CN1C(C(=O)Nc2ccc(OC(F)(F)F)cc2)=CC(c2cccs2)=NS1(=O)=O | 6.6
56 | Cc1ccc(S(=O)(=O)CC(=O)Nc2ccc(F)c(F)c2F)cc1 | 14.1
57 | CC(NC(=O)c1ccc2ccccc2n1)c1ccccc1 (stereo not shown) | 7.53
58 | CC(=O)/C(=N\Nc1ccc(C)cc1)N1CCOCC1 | 13
59 | Cc1cccc(NC(=O)c2cc(=O)n(Cc3ccccc3)c(=O)[nH]2)c1 | 6.93
60 | COc1cc(C2/C(=C(/O)c3ccc(OCC(C)C)cc3)C(=O)C(=O)N2CCN(C)C)ccc1O (stereo not shown) | 5.59
61 | COc1cccc(C(CC(=O)NCc2ccco2)NS(=O)(=O)c2ccc(C)cc2)c1OC (stereo not shown) | -6.35
62 | CCOc1ccc(CN2CCC(Cc3ccccc3)CC2)cc1 | -76.8
63 | Cc1ccc(C(=O)N2CCN(c3ccccc3Cl)CC2)cc1[N+](=O)[O-] | 12.9
64 | O=C(COc1ccccc1)NCC(=O)Nc1cccc(S(=O)(=O)NC2=NCCC2)c1 | -1.23
65 | Cc1ccc(-n2c(O)c(C=NCCN(C)C)c(=O)[nH]c2=O)cc1 | 19.5
66 | Cc1c(C)n(C)c2ccc(C(=O)Nc3cccc4ccccc34)cc12 | 14.6

Row | SMILES | hERG current change (%, negative = inhibition) at 1uM [%]
67 | O=C(NCc1ccccc1F)C1CCCN1C(=O)NC1CCCCC1 (stereo not shown) | -11.5
68 | COC(=O)C(NNc1ccccc1C)(NC(=O)c1ccc(F)cc1)C(F)(F)F (stereo not shown) | 9.79
69 | Cc1nnc(NC(=O)CN2CCN(Cc3ccccc3)CC2)s1 | 13.6
70 | Oc1ccccc1Cc1c(O)ccc2ccccc12 | 10.9
71 | CCc1cccc(CC)c1NC(=S)NCc1ccc2c(c1)OCO2 | 4.09
72 | CC(C)[C@H](NC(=O)OC(C)(C)C)C(=O)N/N=C/c1cccc2nccnc12 | -0.153
73 | COc1ccccc1CCC(=O)Nc1cc(S(=O)(=O)N2CCOCC2)ccc1N1CCCC1 | -4.33
74 | CCOC(=O)c1ccc(S(=O)(=O)N2CCN(CC(=O)NC(=O)NC(C)(C)C)CC2)cc1 | 11.2
75 | O=C(NNS(=O)(=O)c1ccccc1C(F)(F)F)c1cc2ncc(C(F)(F)F)cc2s1 | 19.1
76 | COC(=O)c1ccc2c(c1)N(Cc1ccccc1F)C(=O)c1ccccc1S2=O (stereo not shown) | 17.3
77 | O=C(Cc1csc(N2CCOCC2)n1)N/N=C/c1ccc(Cl)cc1Cl | -0.0298
78 | CCCNC(=O)CN(c1cccc(F)c1)S(C)(=O)=O | 3.53
79 | CC1CCCN(CCCNC(=O)CN2C(=O)COc3ccc(S(=O)(=O)N4CCOCC4)cc32)C1 (stereo not shown) | 14.1
80 | COc1ccc(S(=O)(=O)Cc2ccc(C(=O)NC3CCCC3)o2)cc1 | 1.69
81 | CCOc1ccc(NC2OC(C)C(O)C(O)C2O)c([N+](=O)[O-])c1 (stereo not shown) | 14.5
82 | COc1ccc(N=C2C(=Nc3ccc(OC)cc3)N(c3ccc(OC)cc3)C(=S)N2c2ccccc2)cc1 | 12.7
83 | CCOc1ccc(C(=O)NCC2CCCN2S(=O)(=O)c2cccs2)cc1 (stereo not shown) | 10.6
84 | CCN1CCc2nc(NC(=O)CC(c3ccccc3)c3ccccc3)sc2C1 | 6.48
85 | COc1ccc([C@H]2C=C(C(=O)O)O[C@@H](OCc3ccc(CO)cc3)C2)cc1 | 16.4
